In all, about 94,000 compounds went through this assay and about 20 (0.02%) were called active. This list was built around the results that the source calls inconclusive (neither active nor inactive); the mix of calls is not that of the screen. Calls come from the whole dose curve; as a rule, active = well fitted activation curve with a large enough effect; inconclusive = small, poorly fitted or top-dose-only effect; inactive = flat fitted curve, though single readings scatter. No potency is given beside an inconclusive call; the fits are too rough.
assay: qHTS of alpha-syn Inhibitors: NCGC Sytravon Library Screen; for growth rescue (activation): 0% is about no effect; details: S. cerevisiae alpha-synuclein toxicity rescue, BacTiter-Glo growth, 24 h; growth rescue (activation): at 46.1 µM (top of the series)
Outline: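 Growth restoration measured by BacTiter-Glo luminescence after 24 hr at 30 deg C; alpha-synuclein yeast, raffinose-pregrown to mid-log, were added at OD600=0.02 in galactose medium onto pinned compounds.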
Potency is the fitted concentration of half-maximal effect; tags give direction and shape of the fitted curve.

SMILES | Potency | growth rescue (activation)
CCOc1ccc(N(C(C)C(=O)NCCSc2ccc(Cl)cc2)S(C)(=O)=O)cc1 (configuration not stated) | inconclusive [activator, single point] | –
Cc1cc(OCC(=O)N2CCC(c3nc4ccccc4s3)CC2)ccc1Cl | inconclusive [activator, single point] | –
CCCS(=O)(=O)N1CCC(n2c(C)nc3cccnc32)CC1 | inactive | –
CCOC(=O)c1cc(-c2ccccc2)n(CCC(=O)NCCc2ccccc2)c1C | inconclusive [activator, single point] | –
CCCCCn1c(CCCNC(=O)c2cccc(C)c2)nc2ccccc21 | inactive | –
Cc1nn2c(=O)cc(COC(=O)c3ccc(NC(=O)COc4ccc(Cl)cc4)cc3)nc2s1 | inconclusive [activator, single point] | –
CCN(CC)C(=O)c1oc2ccc(S(=O)(=O)N3CC(C)CC(C)C3)cc2c1C (configuration not stated) | – | inconclusive: 99.1% [activator]
O=C(CC1(O)C(=O)N(CCc2ccccc2)c2ccc(Br)cc21)c1ccc(F)cc1 (configuration not stated) | inconclusive [activator, single point] | –
COc1cc(C2CC(=O)Nc3c2c(C)nn3-c2nc(C)cc(C)n2)cc(OC)c1O (configuration not stated) | inconclusive [activator, single point] | –
CCCC(=O)O/N=C(\c1ccccc1)c1ccncc1 | – | inconclusive: 37% [activator]
Cc1cc(-c2ccc(C)c(S(=O)(=O)NC3CCCCC3)c2)on1 | inconclusive [activator, single point] | –
CCOc1ccccc1NC(=O)c1ccc2c(Cl)c3c(nc2c1)CCC3 | inactive | –
Cn1c2ccccc2c(=O)c2ccc(Cl)cc21 | – | inconclusive: 107% [activator]
Cc1ccc2oc(=O)c3cc(C(=O)NCCCN4CCc5ccccc5C4)sc3c2c1 | – | inconclusive: 45.1% [activator]
CC(C)CCN(Cc1ccco1)C(=O)c1cc2c(s1)-c1ccccc1OC2 | inconclusive [activator, single point] | –
CCC(C)NC(=O)CSc1nc2n[nH]c(C)c2c(=N)n1-c1cc(Cl)ccc1C (configuration not stated) | inactive | –
Cc1ccc(/C=C/c2onc(C)c2S(=O)(=O)N2CCC(C(=O)Nc3cc(C)ccc3C)CC2)cc1 | inconclusive [activator, single point] | –
CCCOc1ccc(CN(C(=O)Cc2coc3ccc(CC)cc23)C2CCS(=O)(=O)C2)cc1 (configuration not stated) | inconclusive [activator, single point] | –
CCC(NC(=O)Nc1cc(Cl)ccc1OC)c1c(-n2cccc2)sc2c1CCN(C)C2 (configuration not stated) | inactive | –
Cc1ccc(NC(=O)c2cccn2-c2nnc(N3CCCCC3)s2)cc1Cl | inconclusive [activator, single point] | –
O=C(Cn1cc(SCc2cccc(Cl)c2)c2ccccc21)N1CCOCC1 | inconclusive [activator, single point] | –

SMILES | Potency | growth rescue (activation)
CSc1ccc(CCNC(=O)C(C)n2nc(C)c3sc4ccccc4c3c2=O)cc1 (configuration not stated) | inactive | –
O=C(NCCS(=O)(=O)N1CCN(c2ccc(F)cc2)CC1)c1cccc(C(F)(F)F)c1 | inactive | –
CCCCSCCCNC(=O)c1cn(C)c2ccc(S(=O)(=O)N3CCCCCC3)cc2c1=O | inactive | –
Cc1ccc(Cl)cc1N1CCN(C(=O)CCCn2c(=O)[nH]c3ccc(Br)cc3c2=O)CC1 | inconclusive [activator, single point] | –
Cc1cc(C)c(NC(=O)CCn2c(=O)c3cccn3c3ccccc32)c(C)c1 | inactive | –
CCN1CCN(C(c2ccc(SC)cc2)c2c(O)cc(C)n(Cc3ccco3)c2=O)CC1 (configuration not stated) | inconclusive [activator, single point] | –
COC(=O)c1sc2cccc(F)c2c1S(=O)(=O)Nc1ccc(C)cc1Cl | inconclusive [activator, single point] | –
Cc1ccc(CNC(=O)CSc2ncc(S(=O)(=O)c3ccc(C)c(Cl)c3)c(=O)[nH]2)cc1 | inactive | –
COC(=O)c1sc2cccc(F)c2c1S(=O)(=O)NCc1ccccc1Cl | inconclusive [activator, single point] | –
CCc1ccc(-c2cc(C)no2)cc1S(=O)(=O)NCc1ccc(OC)cc1 | inconclusive [activator, single point] | –
Cc1ccc(Cl)cc1N1CCN(C(=O)COc2cc(=O)n(C)c3ccccc23)CC1 | inconclusive [activator, single point] | –
CCc1cc(=O)oc2c(C)c(OCC(=O)Nc3ccc(S(=O)(=O)N(CC)CC)cc3)ccc12 | inconclusive [activator, single point] | –
CCOc1ccccc1NC(=O)CN(c1cc(C)cc(C)c1)S(=O)(=O)c1c(C)nn(C)c1C | inconclusive [activator, single point] | –
Cc1ccnc(NS(=O)(=O)c2cc([N+](=O)[O-])ccc2C)c1 | – | inconclusive: 48.2% [activator]
CCc1nn2c(=O)cc(COC(=O)c3cccc(NC(=O)COc4ccccc4F)c3)nc2s1 | inconclusive [activator, single point] | –
Cc1ccc(CN2C(=O)CC(c3ccc(Cl)cc3)c3c(C)nn(-c4nc(C)cc(C)n4)c32)cc1 (configuration not stated) | inconclusive [activator, single point] | –
COC(=O)c1c(NC(=O)COc2ccc(OC)cc2)sc2c1CCC(C)C2 (configuration not stated) | inconclusive [activator, single point] | –
CCN(Cc1ccccc1)S(=O)(=O)c1ccc2[nH]c3c(c2c1)CCCCC3 | inconclusive [activator, single point] | –
CCC(C(=O)NCCc1cc(OC)ccc1OC)n1nc(C)c2sc3ccccc3c2c1=O (configuration not stated) | inconclusive [activator, single point] | –
COc1ccccc1NC(=O)Cn1c(=O)n(Cc2nc(-c3ccccc3)no2)c(=O)c2ccccc21 | inactive | –
CCOC(=O)c1c(NC(=O)C(C)Sc2nnc(C)c(=O)[nH]2)sc2c1CCCC2 (configuration not stated) | inactive | –

Source: PubChem BioAssay AID1347070 (National Center for Advancing Translational Sciences (NCATS), 2019)
